Data: article PMC4336329 (PLoS ONE, 2015)
Screen size: about 310,000 compounds; about 14,000 (4.5%) showed an effect of 50% or more. Effects have a minus sign here. Some of the results follow.

The compounds below were run against human ether-à-go-go-related gene (hERG) potassium channel (human, UniProt Q12809) (assay: primary screen, population patch clamp on CHO cells stably expressing hERG).
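Note: peak tail current of the secondary pulse compared with the same well before compound.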

Chain of human ether-à-go-go-related gene (hERG) potassium channel (Q12809 whole entry, looked up): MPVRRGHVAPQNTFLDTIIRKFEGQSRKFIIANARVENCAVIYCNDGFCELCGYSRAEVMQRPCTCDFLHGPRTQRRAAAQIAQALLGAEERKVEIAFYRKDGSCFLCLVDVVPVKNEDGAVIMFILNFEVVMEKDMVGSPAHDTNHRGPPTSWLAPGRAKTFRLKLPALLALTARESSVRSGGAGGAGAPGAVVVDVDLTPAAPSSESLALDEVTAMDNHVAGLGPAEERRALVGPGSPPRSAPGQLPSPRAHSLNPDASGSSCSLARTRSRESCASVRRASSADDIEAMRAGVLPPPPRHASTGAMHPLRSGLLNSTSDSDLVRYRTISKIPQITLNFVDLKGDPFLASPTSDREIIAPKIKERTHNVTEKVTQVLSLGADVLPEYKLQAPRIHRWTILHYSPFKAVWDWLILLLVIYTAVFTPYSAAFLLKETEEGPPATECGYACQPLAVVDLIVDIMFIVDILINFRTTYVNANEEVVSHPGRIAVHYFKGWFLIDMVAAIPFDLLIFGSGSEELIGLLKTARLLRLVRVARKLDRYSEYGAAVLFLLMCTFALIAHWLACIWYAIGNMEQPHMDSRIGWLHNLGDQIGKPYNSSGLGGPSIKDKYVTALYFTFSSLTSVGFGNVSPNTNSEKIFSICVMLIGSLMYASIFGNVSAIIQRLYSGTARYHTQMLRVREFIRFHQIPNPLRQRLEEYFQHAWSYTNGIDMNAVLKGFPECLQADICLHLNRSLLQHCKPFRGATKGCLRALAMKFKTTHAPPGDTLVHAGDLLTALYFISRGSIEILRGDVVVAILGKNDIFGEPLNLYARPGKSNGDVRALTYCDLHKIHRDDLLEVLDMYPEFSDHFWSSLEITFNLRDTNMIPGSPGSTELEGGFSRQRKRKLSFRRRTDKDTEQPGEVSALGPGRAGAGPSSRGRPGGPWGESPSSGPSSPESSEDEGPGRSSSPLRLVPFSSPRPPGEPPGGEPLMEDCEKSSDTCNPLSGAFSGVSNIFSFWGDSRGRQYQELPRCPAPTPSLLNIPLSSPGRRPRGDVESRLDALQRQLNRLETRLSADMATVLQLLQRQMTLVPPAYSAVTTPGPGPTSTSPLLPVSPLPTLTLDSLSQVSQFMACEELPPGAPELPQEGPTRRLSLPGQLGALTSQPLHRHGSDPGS

SMILES | hERG current change (%, negative = inhibition) at 10uM
CC(C)(C)NC(=O)NC(=O)CN1c2cccc3cccc(c23)S1(=O)=O | 20%
CSCC[C@H](NS(=O)(=O)c1ccc(C)cc1)C(=O)N1CCC(C(=O)N[C@H](C(=O)O)c2ccccc2)CC1 | -2.1%
CCOc1ccc(N(CC(=O)NC2CCCC(C)C2C)S(=O)(=O)c2c(C)noc2C)cc1 (stereo not drawn) | -2.95%
CCOC(=O)c1cc2c(=O)n3ccccc3nc2n(Cc2ccco2)c1=NC(=O)c1ccccc1OCC | -50%
CC1(C)C(=O)Nc2ccccc2N1C(=O)COC(=O)CCSc1ccccc1 | -5.53%
Cc1ccccc1-n1ncc2c([N+](=O)[O-])cc([N+](=O)[O-])cc21 | -11.8%
COC(CNC(=O)C(=O)Nc1cc2c3c(c1)CCN3C(=O)CC2)OC | 20.1%
COc1cccc(C(C2C(=O)CC(C)(C)CC2=O)C2C(=O)CC(C)(C)CC2=O)c1 | 21.2%
CCOC(=O)c1sc(NC(=O)c2cc(S(=O)(=O)N3CCOCC3)ccc2C)nc1C | -60.9%
COc1ccc(Nc2nc(N)nc(CSC(=S)N3CCN(C)CC3)n2)cc1 | -12.5%
O=C(CO/N=C/c1cccc([N+](=O)[O-])c1)Nc1ccc2ccccc2c1 | 3.23%
N#C/C(=C/c1cccn1-c1cccc(C(=O)O)c1)c1ccc(Cl)cc1 | 11.5%
COc1cccc2sc(N(CCN(C)C)C(=O)c3ccc(S(=O)(=O)N4CCCC4)cc3)nc12.Cl | -31.2%
COc1cccc(-c2n[nH]c(=S)n2Cc2ccco2)c1OC | 6.08%
Cc1ccccc1C(=O)Nc1ccnn1C1CCN(Cc2cccnc2)CC1 | -77.4%
COC(c1ccccc1)c1nnc(CCC(=O)NCCC(C)C)o1 (stereo not drawn) | 11.6%
Cc1ccc(S(=O)(=O)NN2C(=O)/C(=C/c3ccc(C(=O)O)cc3)SC2=S)cc1 | 19.9%
COc1ccccc1NC(=O)c1ccccc1C(=O)O | 21.8%
COC(=O)C1=C(C)Nc2nc(-c3ccccc3)nn2C1c1ccc(C)o1 (stereo not drawn) | -12.4%
CSc1cccc(NC(=O)C2CCCN2S(=O)(=O)c2ccc(Br)s2)c1 (stereo not drawn) | 5.27%
Cc1ccc(CNC(=O)C(=O)NCC2OCCN2S(=O)(=O)c2cccs2)cc1 (stereo not drawn) | 6.69%

SMILES | hERG current change (%, negative = inhibition) at 10uM
COc1cc(OC)c(OC)cc1/C=C1\SC(N2CCCCC2)=NC1=O | 17.6%
CCOc1ccc(C2=C/C(=C/c3cccnc3)C(=O)O2)cc1 | 5.07%
O=S(=O)(Nc1ccc(S(=O)(=O)N2CCOCC2)cc1)c1ccc(Br)cc1 | -28.7%
Cc1ccc(S(=O)(=O)N(C)CCCC(=O)NCc2ccc3c(c2)OCO3)cc1 | -23.5%
CC1(C(=O)NNC(=O)c2ccc([N+](=O)[O-])cc2)CC1(Br)Br (stereo not drawn) | -0.0404%
CCOc1cc(CNc2ccccc2)cc(Br)c1OCc1ccc(F)cc1 | 10.3%
Cn1c(-c2sc3cc(C(F)(F)F)cnc3c2-c2cccnc2)n[nH]c1=S | 23.6%
O=C(CNCC1CCCO1)NCc1ccco1.O=C(O)C(=O)O (stereo not drawn) | 14%
COc1ccc(-c2noc(-c3ccccc3C(=O)NCC3CCCO3)n2)cc1 (stereo not drawn) | -21.5%
O=C(Nc1cccc(O)c1)c1cc2nc(-c3ccccc3)cc(-c3ccccc3)n2n1 | 9.68%
O=C1C2=C(NC(=S)NC2c2ccc(Cl)cc2)NC(c2ccc(Cl)cc2)N1c1ccc(Cl)cc1 (stereo not drawn) | 8.94%
Cc1nc2ccc(S(=O)(=O)Nc3ccc(-c4nc5cccnc5s4)cc3)cc2s1 | 13.4%
COc1ccc(-c2cc3cc(C(=O)[O-])ccn3c2C(=O)c2ccccc2)cc1.O | 15.2%
CCC(=NC1CC(C)(C)NC(C)(C)C1)C1=C(O)CC(C)(C)CC1=O | 5.83%
CCC1ON(C(C)C)C2c3nc4ccccc4n3CC12 (stereo not drawn) | 23.3%
Nc1cc(=O)[nH]c(SCC(=O)Nc2cc(Cl)cc(Cl)c2)n1 | 14.8%
Cc1cccc(NC(=O)c2ccc3c(c2)OCCO3)n1 | 9.65%
CCOc1ccc(CC(=O)N/N=C(\C)c2cccnc2)cc1 | 17%
CNS(=O)(=O)c1ccc(N=Cc2c(O)n(-c3ccc(C)cc3)c(=O)[nH]c2=O)cc1 | 8%
Cc1cc(S(=O)(=O)NCc2ccccc2)ccc1OCC(=O)N1CCN(C)CC1 | -3.06%
CC(C)c1cc(C(=O)Nc2cccc(Cl)c2)no1 | 3.17%
